# Results reported in the supplement of paper PMC8728848.
# The other results are listed elsewhere or left out.
# Legend:
# Assay in all cases: glycan array binding signal (z-score within array); higher = stronger binding
# Conditions in all cases: glycan notation: IUPAC condensed, linker removed
# Gal(a1-3)Gal = biological target: Gal(a1-3)Gal
# In short: (§1)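 The binding signal is a Z-score computed within each array. Data were drawn from 3228 arrays in the Consortium for Functional Glycomics database, restricted to those with a known protein sequence. Scores were averaged over arrays of the same protein sequence at different concentrations or buffers, and over linkers, and negative values can be taken as non-binding.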
# Gal(a1-3)Gal(b1-3)GlcNAc = biological target: Gal(a1-3)Gal(b1-3)GlcNAc
# In short: as §1
# [1] = biological target: Gal(a1-3)Gal(b1-3)GlcNAc(b1-2)Man(a1-3)[Gal(a1-3)Gal(b1-3)GlcNAc(b1-2)Man(a1-6)]Man(b1-4)GlcNAc(b1-4)GlcNAc
# In short: as §1
# [2] = biological target: Gal(a1-3)Gal(b1-3)GlcNAc(b1-3)GalNAc
# In short: as §1
# [3] = biological target: Gal(a1-3)Gal(b1-3)[Fuc(a1-4)]GlcNAc(b1-2)Man(a1-3)[Gal(a1-3)Gal(b1-3)[Fuc(a1-4)]GlcNAc(b1-2)Man(a1-6)]Man(b1-4)GlcNAc(b1-4)GlcNAc
# In short: as §1
# Gal(a1-3)Gal(b1-4)Glc = biological target: Gal(a1-3)Gal(b1-4)Glc
# In short: as §1
# Gal(a1-3)Gal(b1-4)GlcNAc = biological target: Gal(a1-3)Gal(b1-4)GlcNAc
# In short: as §1
# [4] = biological target: Gal(a1-3)Gal(b1-4)GlcNAc(b1-3)GalNAc
# In short: as §1
# [5] = biological target: Gal(a1-3)Gal(b1-4)[Fuc(a1-3)]GlcNAc
# In short: as §1
# [6] = biological target: Gal(a1-3)Gal(b1-4)[Fuc(a1-3)]GlcNAc(b1-2)Man(a1-3)[Gal(a1-3)Gal(b1-4)[Fuc(a1-3)]GlcNAc(b1-2)Man(a1-6)]Man(b1-4)GlcNAc(b1-4)GlcNAc
# In short: as §1
# Gal(a1-3)GalNAc = biological target: Gal(a1-3)GalNAc
# In short: as §1
# [7] = biological target: Gal(a1-3)[Gal(a1-4)]Gal(b1-4)GlcNAc
# In short: as §1
# [8] = biological target: Gal(a1-4)Gal(b1-3)GlcNAc(b1-2)Man(a1-3)[Gal(a1-4)Gal(b1-3)GlcNAc(b1-2)Man(a1-6)]Man(b1-4)GlcNAc(b1-4)GlcNAc
# In short: as §1
# Gal(a1-4)Gal(b1-4)Glc = biological target: Gal(a1-4)Gal(b1-4)Glc
# In short: as §1
# Gal(a1-4)Gal(b1-4)GlcNAc = biological target: Gal(a1-4)Gal(b1-4)GlcNAc
# In short: as §1
# [9] = biological target: Gal(a1-4)Gal(b1-4)GlcNAc(b1-2)Man(a1-3)[Gal(a1-4)Gal(b1-4)GlcNAc(b1-2)Man(a1-6)]Man(b1-4)GlcNAc(b1-4)GlcNAc
# In short: as §1
# [10] = biological target: Gal(a1-4)Gal(b1-4)GlcNAc(b1-3)Gal(b1-4)Glc
# In short: as §1
# Gal(a1-4)GlcNAc = biological target: Gal(a1-4)GlcNAc
# In short: as §1
# Gal(a1-6)Glc = biological target: Gal(a1-6)Glc
# In short: as §1
# Gal(b1-2)Gal = biological target: Gal(b1-2)Gal
# In short: as §1
# Gal(b1-3)Gal = biological target: Gal(b1-3)Gal
# In short: as §1
# Gal(b1-3)Gal(b1-4)GlcNAc = biological target: Gal(b1-3)Gal(b1-4)GlcNAc
# In short: as §1
# [11] = biological target: Gal(b1-3)Gal(b1-4)GlcNAc(b1-2)Man(a1-3)[Gal(b1-3)Gal(b1-4)GlcNAc(b1-2)Man(a1-6)]Man(b1-4)GlcNAc(b1-4)GlcNAc
# In short: as §1
# Gal(b1-3)GalNAc = biological target: Gal(b1-3)GalNAc
# In short: as §1
# [12] = biological target: Gal(b1-3)GalNAc(a1-3)[Fuc(a1-2)]Gal(b1-4)Glc
# In short: as §1
# [13] = biological target: Gal(b1-3)GalNAc(a1-3)[Fuc(a1-2)]Gal(b1-4)GlcNAc
# In short: as §1
# [14] = biological target: Gal(b1-3)GalNAc(b1-3)Gal(a1-4)Gal(b1-4)Glc
# In short: as §1
# [15] = biological target: Gal(b1-3)GalNAc(b1-4)Gal(b1-4)Glc
# In short: as §1
# [16] = biological target: Gal(b1-3)GalNAc(b1-4)[Neu5Ac(a2-3)]Gal(b1-4)Glc
# In short: as §1
# Gal(b1-3)GlcNAc = biological target: Gal(b1-3)GlcNAc
# In short: as §1
# [17] = biological target: Gal(b1-3)GlcNAc(a1-6)Gal(b1-4)GlcNAc
# In short: as §1
# [18] = biological target: Gal(b1-3)GlcNAc(b1-2)Man(a1-3)[Gal(b1-3)GlcNAc(b1-2)Man(a1-6)]Man(b1-4)GlcNAc(b1-4)GlcNAc
# In short: as §1
# [19] = biological target: Gal(b1-3)GlcNAc(b1-2)Man(a1-3)[Gal(b1-3)GlcNAc(b1-2)Man(a1-6)]Man(b1-4)GlcNAc(b1-4)[Fuc(a1-6)]GlcNAc
# In short: as §1
# [20] = biological target: Gal(b1-3)GlcNAc(b1-2)[Gal(b1-3)GlcNAc(b1-6)]Man(a1-6)[Gal(b1-3)GlcNAc(b1-2)Man(a1-3)]Man(b1-4)GlcNAc(b1-4)GlcNAc
# In short: as §1
# [21] = biological target: Gal(b1-3)GlcNAc(b1-3)Gal(b1-3)GlcNAc
# In short: as §1
# [22] = biological target: Gal(b1-3)GlcNAc(b1-3)Gal(b1-4)Glc
# In short: as §1
# [23] = biological target: Gal(b1-3)GlcNAc(b1-3)Gal(b1-4)GlcNAc
# In short: as §1
binder,measurement,setting,value
"AFL (Aspergillus fumigatus), Q4WW81 (protein) STPGAQQVLFRTGIAAVNLTNHLRVYFQDVYGSIRESLYEGSWANGTEKNVIGNAKLGSPVAATSKELKHIRVYTLTEGNTLQEFAYDSGTGWYNGGLGGAKFQVAPYSRIAAVFLAGTDALQLRIYAQKPDNTIQEYMWNGDGWKEGTNLGGALPGTGIGATSFRYTDYNGPSIRIWFQTDDLKLVQRAYDPHKGWYPDLVTIFDRAPPRTAIAATSFGAGNSSIYMRIYFVNSDNTIWQVCWDHGKGYHDKGTITPVIQGSEVAIISWGSFANNGPDLRLYFQNGTYISAVSEWVWNRAHGSQLGRSALPPA",glycan array binding signal (z-score),Gal(a1-3)Gal,-0.385
same,glycan array binding signal (z-score),Gal(a1-3)Gal(b1-3)GlcNAc,-0.384
same,glycan array binding signal (z-score),[1],-0.373
same,glycan array binding signal (z-score),[2],-0.373
same,glycan array binding signal (z-score),[3],-0.371
same,glycan array binding signal (z-score),Gal(a1-3)Gal(b1-4)Glc,-0.38
same,glycan array binding signal (z-score),Gal(a1-3)Gal(b1-4)GlcNAc,-0.38
same,glycan array binding signal (z-score),[4],-0.39
same,glycan array binding signal (z-score),[5],0.057
same,glycan array binding signal (z-score),[6],-0.087
same,glycan array binding signal (z-score),Gal(a1-3)GalNAc,-0.382
same,glycan array binding signal (z-score),[7],-0.382
same,glycan array binding signal (z-score),[8],-0.379
same,glycan array binding signal (z-score),Gal(a1-4)Gal(b1-4)Glc,-0.381
same,glycan array binding signal (z-score),Gal(a1-4)Gal(b1-4)GlcNAc,-0.383
same,glycan array binding signal (z-score),[9],-0.385
same,glycan array binding signal (z-score),[10],-0.381
same,glycan array binding signal (z-score),Gal(a1-4)GlcNAc,-0.385
same,glycan array binding signal (z-score),Gal(a1-6)Glc,-0.389
same,glycan array binding signal (z-score),Gal(b1-2)Gal,-0.383
same,glycan array binding signal (z-score),Gal(b1-3)Gal,-0.394
same,glycan array binding signal (z-score),Gal(b1-3)Gal(b1-4)GlcNAc,-0.388
same,glycan array binding signal (z-score),[11],-0.367
same,glycan array binding signal (z-score),Gal(b1-3)GalNAc,-0.383
same,glycan array binding signal (z-score),[12],-0.379
same,glycan array binding signal (z-score),[13],-0.385
same,glycan array binding signal (z-score),[14],-0.372
same,glycan array binding signal (z-score),[15],-0.375
same,glycan array binding signal (z-score),[16],-0.381
same,glycan array binding signal (z-score),Gal(b1-3)GlcNAc,-0.39
same,glycan array binding signal (z-score),[17],-0.384
same,glycan array binding signal (z-score),[18],-0.382
same,glycan array binding signal (z-score),[19],0.632
same,glycan array binding signal (z-score),[20],-0.385
same,glycan array binding signal (z-score),[21],-0.383
same,glycan array binding signal (z-score),[22],-0.386
same,glycan array binding signal (z-score),[23],-0.383
